# Substitutions are numbered along the chain they refer to; changes in the protein carry UniProt numbers. Some of the results follow.
# T1: RBFOX1 RRM RbFoxmut (Fox-RRM*) (Homo sapiens, UniProt Q9NWB1 109-208, R118D;E147R;N151S;E152T)
# T1 sequence: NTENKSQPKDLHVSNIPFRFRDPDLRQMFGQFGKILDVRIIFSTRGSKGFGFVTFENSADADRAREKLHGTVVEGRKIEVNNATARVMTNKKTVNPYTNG
# B1: GACUCAU (DNA:RNA)
# RNA: GGGAGACCGGAAUUCAGAUUGUCCGACUCAUUUAAAUCCCGUCGUAGCCACCA
# DNA 1: CAATCTGAATTCCGGTCTCCC
# DNA 2: TGGTGGCTACGACGGGATT
# B2: ACGUUUG (DNA:RNA)
# RNA: B1 RNA with G25A, A26C, C27G, C29U, A30U, U31G
# DNA 1: CAATCTGAATTCCGGTCTCCC
# DNA 2: TGGTGGCTACGACGGGATT
# B3: UAUGGAC (DNA:RNA)
# RNA: B1 RNA with G25U, C27U, U28G, C29G, U31C
# DNA 1: CAATCTGAATTCCGGTCTCCC
# DNA 2: TGGTGGCTACGACGGGATT
# B4: UAUCUGU (DNA:RNA)
# RNA: B1 RNA with G25U, C27U, U28C, C29U, A30G
# DNA 1: CAATCTGAATTCCGGTCTCCC
# DNA 2: TGGTGGCTACGACGGGATT
# B5: CUGGGCG (DNA:RNA)
# RNA: GGGAGACCGGAAUUCAGAUUGUCCCUGGGCGUUAAAUCCCGUCGUAGCCACCA
# DNA 1: CAATCTGAATTCCGGTCTCCC
# DNA 2: TGGTGGCTACGACGGGATT
# B6: CGGGUUG (DNA:RNA)
# RNA: B5 RNA with U26G, G29U, C30U
# DNA 1: CAATCTGAATTCCGGTCTCCC
# DNA 2: TGGTGGCTACGACGGGATT
# B7: CGGCCAA (DNA:RNA)
# RNA: B5 RNA with U26G, G28C, G29C, C30A, G31A
# DNA 1: CAATCTGAATTCCGGTCTCCC
# DNA 2: TGGTGGCTACGACGGGATT
# B8: UGGCGCG (DNA:RNA)
# RNA: B5 RNA with C25U, U26G, G28C
# DNA 1: CAATCTGAATTCCGGTCTCCC
# DNA 2: TGGTGGCTACGACGGGATT
# B9: AACGGUU (DNA:RNA)
# RNA: B1 RNA with G25A, U28G, C29G, A30U
# DNA 1: CAATCTGAATTCCGGTCTCCC
# DNA 2: TGGTGGCTACGACGGGATT
# B10: GUCAUCC (DNA:RNA)
# RNA: B5 RNA with C25G, G27C, G28A, G29U, G31C
# DNA 1: CAATCTGAATTCCGGTCTCCC
# DNA 2: TGGTGGCTACGACGGGATT
# B11: CAUAUAA (DNA:RNA)
# RNA: B1 RNA with G25C, C27U, U28A, C29U, U31A
# DNA 1: CAATCTGAATTCCGGTCTCCC
# DNA 2: TGGTGGCTACGACGGGATT
# B12: AGCCCUG (DNA:RNA)
# RNA: B1 RNA with G25A, A26G, U28C, A30U, U31G
# DNA 1: CAATCTGAATTCCGGTCTCCC
# DNA 2: TGGTGGCTACGACGGGATT
# B13: GCCCGAC (DNA:RNA)
# RNA: B1 RNA with A26C, U28C, C29G, U31C
# DNA 1: CAATCTGAATTCCGGTCTCCC
# DNA 2: TGGTGGCTACGACGGGATT
# B14: CGCACAU (DNA:RNA)
# RNA: B1 RNA with G25C, A26G, U28A
# DNA 1: CAATCTGAATTCCGGTCTCCC
# DNA 2: TGGTGGCTACGACGGGATT
# B15: CCGUGAU (DNA:RNA)
# RNA: B5 RNA with U26C, G28U, C30A, G31U
# DNA 1: CAATCTGAATTCCGGTCTCCC
# DNA 2: TGGTGGCTACGACGGGATT
# B16: CUCUAAU (DNA:RNA)
# RNA: B1 RNA with G25C, A26U, C29A
# DNA 1: CAATCTGAATTCCGGTCTCCC
# DNA 2: TGGTGGCTACGACGGGATT
# B17: UCCUCUG (DNA:RNA)
# RNA: B1 RNA with G25U, A26C, A30U, U31G
# DNA 1: CAATCTGAATTCCGGTCTCCC
# DNA 2: TGGTGGCTACGACGGGATT
# B18: AACAGCA (DNA:RNA)
# RNA: B5 RNA with C25A, U26A, G27C, G28A, G31A
# DNA 1: CAATCTGAATTCCGGTCTCCC
# DNA 2: TGGTGGCTACGACGGGATT
# B19: GCCUCAG (DNA:RNA)
# RNA: B1 RNA with A26C, U31G
# DNA 1: CAATCTGAATTCCGGTCTCCC
# DNA 2: TGGTGGCTACGACGGGATT
# B20: GCUGAAC (DNA:RNA)
# RNA: B1 RNA with A26C, C27U, U28G, C29A, U31C
# DNA 1: CAATCTGAATTCCGGTCTCCC
# DNA 2: TGGTGGCTACGACGGGATT
# B21: GCGAAAA (DNA:RNA)
# RNA: B1 RNA with A26C, C27G, U28A, C29A, U31A
# DNA 1: CAATCTGAATTCCGGTCTCCC
# DNA 2: TGGTGGCTACGACGGGATT
# B22: GCAUGAU (DNA:RNA)
# RNA: B1 RNA with A26C, C27A, C29G
# DNA 1: CAATCTGAATTCCGGTCTCCC
# DNA 2: TGGTGGCTACGACGGGATT
# B23: AACAUUU (DNA:RNA)
# RNA: B1 RNA with G25A, U28A, C29U, A30U
# DNA 1: CAATCTGAATTCCGGTCTCCC
# DNA 2: TGGTGGCTACGACGGGATT
# B24: CUAGAGU (DNA:RNA)
# RNA: B5 RNA with G27A, G29A, C30G, G31U
# DNA 1: CAATCTGAATTCCGGTCTCCC
# DNA 2: TGGTGGCTACGACGGGATT
# B25: AGGGAGU (DNA:RNA)
# RNA: B5 RNA with C25A, U26G, G29A, C30G, G31U
# DNA 1: CAATCTGAATTCCGGTCTCCC
# DNA 2: TGGTGGCTACGACGGGATT
# B26: GAUACCC (DNA:RNA)
# RNA: B1 RNA with C27U, U28A, A30C, U31C
# DNA 1: CAATCTGAATTCCGGTCTCCC
# DNA 2: TGGTGGCTACGACGGGATT
# B27: UCGGCCC (DNA:RNA)
# RNA: B5 RNA with C25U, U26C, G29C, G31C
# DNA 1: CAATCTGAATTCCGGTCTCCC
# DNA 2: TGGTGGCTACGACGGGATT
# B28: AAGACAC (DNA:RNA)
# RNA: B1 RNA with G25A, C27G, U28A, U31C
# DNA 1: CAATCTGAATTCCGGTCTCCC
# DNA 2: TGGTGGCTACGACGGGATT
# B29: CCUUGAU (DNA:RNA)
# RNA: B1 RNA with G25C, A26C, C27U, C29G
# DNA 1: CAATCTGAATTCCGGTCTCCC
# DNA 2: TGGTGGCTACGACGGGATT
# B30: ACCAUCA (DNA:RNA)
# RNA: B5 RNA with C25A, U26C, G27C, G28A, G29U, G31A
# DNA 1: CAATCTGAATTCCGGTCTCCC
# DNA 2: TGGTGGCTACGACGGGATT
# B31: CUUAGUG (DNA:RNA)
# RNA: B5 RNA with G27U, G28A, C30U
# DNA 1: CAATCTGAATTCCGGTCTCCC
# DNA 2: TGGTGGCTACGACGGGATT
# Target: T1, RBFOX1 RRM RbFoxmut (Fox-RRM*)
# Assay: EMSA; HiTS-Eq, 1 nM pool, 10 min; buffer printed only for the single-RNA assays: 10 mM Tris pH 7.5, 150 mM NaCl, 3.4 mM EDTA, 0.001% NP-40, 30 C
# Conditions: tags: His6 N-terminal (pET28a); label: 5' 32P
# In short: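 A pool of RNA with 7 randomized nucleotides, 5′-radiolabelled and with DNA-annealed flanks, was equilibrated at 1 nM for 10 min in 50 µL with purified RbFox RRM, wild type or mutant, across increasing protein concentrations. Free RNA was separated by 8% native PAGE, excised, reverse-transcribed, barcoded by PCR and sequenced. Relative association constants were obtained from read-count changes of each RNA species versus the control reaction and normalised to the cognate motif.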
row,Binder,binding signal
1,B1,0.0995 KA relative to UGCAUGU
2,B2,0.269 KA relative to UGCAUGU
3,B3,0.0737 KA relative to UGCAUGU
4,B4,0.067 KA relative to UGCAUGU
5,B5,0.158 KA relative to UGCAUGU
6,B6,0.66 KA relative to UGCAUGU
7,B7,0.0685 KA relative to UGCAUGU
8,B8,0.19 KA relative to UGCAUGU
9,B9,0.0662 KA relative to UGCAUGU
10,B10,0.112 KA relative to UGCAUGU
11,B11,0.095 KA relative to UGCAUGU
12,B12,0.0683 KA relative to UGCAUGU
13,B13,0.0966 KA relative to UGCAUGU
14,B14,0.0644 KA relative to UGCAUGU
15,B15,0.0964 KA relative to UGCAUGU
16,B16,0.082 KA relative to UGCAUGU

row,Binder,binding signal
1,B17,0.108 KA relative to UGCAUGU
2,B18,0.1 KA relative to UGCAUGU
3,B19,0.117 KA relative to UGCAUGU
4,B20,0.0724 KA relative to UGCAUGU
5,B21,0.0802 KA relative to UGCAUGU
6,B22,0.551 KA relative to UGCAUGU
7,B23,0.0677 KA relative to UGCAUGU
8,B24,0.107 KA relative to UGCAUGU
9,B25,0.151 KA relative to UGCAUGU
10,B26,0.0638 KA relative to UGCAUGU
11,B27,0.0703 KA relative to UGCAUGU
12,B28,0.0662 KA relative to UGCAUGU
13,B29,0.0784 KA relative to UGCAUGU
14,B30,0.085 KA relative to UGCAUGU
15,B31,0.151 KA relative to UGCAUGU

# Source: PMC9911399, “Two distinct binding modes provide the RNA-binding protein RbFox with extraordinary sequence specificity”
